The IC50 comes from the fitted curve, where viability falls to half of the control; where the fit passes the top or lowest dose, that dose stands as a limit. AUC, from the same fit, is the share of area under the viability curve across the 256-fold dose range: 1 means no effect, lower means more sensitive. The top dose, if marked as inferred, is not printed in the source and was worked back from the curve model.

Compound in this assay: O=C1NC(=O)/C(=C\c2ccc3nccnc3c2)S1 [AS605240]
The experiment in a line: Viability of human cancer cell lines after 72 h of drug (GDSC screen). Conditions: top dose inferred. How it is done: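 Human cancer cell lines in 384-well plates, medium with 10% serum, drug for 72 h over a 256-fold dose range (nine 2-fold or five 4-fold steps up to the top dose). Adherent lines were fixed and stained with the nucleic acid dye Syto60, suspension lines read with resazurin; signal relative to control wells, capped at 0 and 100%. One two-parameter sigmoid per drug and line, fitted in a mixed model over all curves with the slope shared within a line.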
Take “C2BBe1 (large intestine, adherent, top dose 20 µM)”: the AUC was 0.843 and the IC50 – broadly, the concentration that gives 50% inhibition – turned out to be 17.1 µM.

On to C3A (liver, adherent, top dose 20 µM), for which the AUC came to 0.988 and the concentration for half-maximal inhibition (IC50) was more than 20 µM.

On to “C32 (melanoma, adherent, top dose 20 µM)”, for which the AUC was found to be 0.457 and the IC50 is 0.946 µM.

For the cell line “C-4-I (cervix, adherent, top dose 20 µM)”, the AUC stood at 0.978 and the IC50 is more than 20 µM.

With “C-33-A (cervix, adherent, top dose 20 µM)”, the AUC amounted to 0.855 and the half-maximal inhibitory concentration (IC50) turned out to be 16 µM.

Take “CA46 (Burkitt lymphoma, suspension, top dose 20 µM)”: the AUC was determined as 0.854 and the IC50 amounted to 17.6 µM.

As to “CADO-ES1 (Ewing sarcoma, suspension, top dose 20 µM)”, the AUC is 0.718 and the 50% inhibitory concentration (IC50) was found to be 5.26 µM.

Consider “CAKI-1 (kidney, adherent, top dose 20 µM)”, for which the AUC worked out at 0.846 and the concentration for half-maximal inhibition (IC50) is more than 20 µM.

On to “CAL-12T (non-small cell lung carcinoma, adherent, top dose 20 µM)”, for which the AUC turned out to be 0.591 and the IC50 turned out to be 2.29 µM.

Take “CAL-27 (head and neck, adherent, top dose 20 µM)”: the AUC was 0.786 and the concentration for half-maximal inhibition (IC50) is 8.82 µM.

Consider “CAL-29 (bladder, adherent, top dose 20 µM)”, for which the AUC was 0.746 and the 50% inhibitory concentration (IC50) worked out at 6.75 µM.

Take “CAL-33 (head and neck, adherent, top dose 20 µM)”: the AUC is 0.833 and the IC50 turned out to be 13 µM.

For the cell line “CAL-39 (cervix, adherent, top dose 20 µM)”, the AUC turned out to be 0.806 and the 50% inhibitory concentration (IC50) was 10.7 µM.

Consider “CAL-51 (breast, adherent, top dose 20 µM)”, for which the AUC stood at 0.955 and the IC50 is more than 20 µM.

As to “CAL-54 (kidney, adherent, top dose 20 µM)”, the AUC turned out to be 0.852 and the IC50 stood at 19 µM.

With “CAL-62 (thyroid, adherent, top dose 20 µM)”, the AUC amounted to 0.872 and the IC50 is 17.4 µM.

For the cell line “CAL-72 (osteosarcoma, adherent, top dose 20 µM)”, the AUC worked out at 0.984 and the half-maximal inhibitory concentration (IC50) is more than 20 µM.

Take “CAL-78 (chondrosarcoma, adherent, top dose 20 µM)”: the AUC came out at 0.986 and the IC50 was more than 20 µM.

Regarding “CAL-85-1 (breast, adherent, top dose 20 µM)”, the AUC amounted to 0.842 and the half-inhibitory concentration (IC50) was more than 20 µM.

Take “CAL-120 (breast, adherent, top dose 20 µM)”: the AUC came to 0.864 and the IC50 is more than 20 µM.

As for “CAL-148 (breast, suspension, top dose 20 µM)”, the AUC came out at 0.957 and the IC50 was more than 20 µM.

As to “CAMA-1 (breast, adherent, top dose 20 µM)”, the AUC is 0.95 and the IC50 was more than 20 µM.

With “CAPAN-1 (pancreas, adherent, top dose 20 µM)”, the AUC is 0.841 and the half-inhibitory concentration (IC50) was 16.2 µM.

For “CAS-1 (glioma, adherent, top dose 20 µM)”, the AUC turned out to be 0.972 and the IC50 was more than 20 µM.

As for “CCF-STTG1 (glioma, adherent, top dose 20 µM)”, the AUC was determined as 0.988 and the IC50 was more than 20 µM.

Consider “CCK-81 (large intestine, adherent, top dose 20 µM)”, for which the AUC came to 0.901 and the IC50 is more than 20 µM.

For the cell line “CCRF-CEM (lymphoblastic leukaemia, suspension, top dose 20 µM)”, the AUC worked out at 0.783 and the half-maximal inhibitory concentration (IC50) came to 7.05 µM.

For “CESS (acute myeloid leukaemia, suspension, top dose 20 µM)”, the AUC was 0.787 and the 50% inhibitory concentration (IC50) worked out at 7.4 µM.

Take “CFPAC-1 (pancreas, adherent, top dose 20 µM)”: the AUC stood at 0.942 and the concentration for half-maximal inhibition (IC50) was more than 20 µM.

Consider “CGTH-W-1 (thyroid, adherent, top dose 20 µM)”, for which the AUC is 0.961 and the concentration for half-maximal inhibition (IC50) was more than 20 µM.

Take “CHL-1 (melanoma, adherent, top dose 20 µM)”: the AUC came to 0.907 and the IC50 is more than 20 µM.

Regarding “CHP-134 (neuroblastoma, suspension, top dose 20 µM)”, the AUC is 0.939 and the half-maximal inhibitory concentration (IC50) is more than 20 µM.

As to “CHP-212 (neuroblastoma, adherent, top dose 20 µM)”, the AUC worked out at 0.041 and the IC50 is less than 0.0781 µM.

Take “CHSA0011 (chondrosarcoma, adherent, top dose 20 µM)”: the AUC was 0.902 and the concentration for half-maximal inhibition (IC50) is more than 20 µM.

On to “CHSA0108 (chondrosarcoma, adherent, top dose 20 µM)”, for which the AUC was determined as 0.897 and the IC50 is more than 20 µM.

As for “CHSA8926 (chondrosarcoma, adherent, top dose 20 µM)”, the AUC is 0.978 and the half-inhibitory concentration (IC50) is more than 20 µM.

Turning to “CL-11 (large intestine, adherent, top dose 20 µM)”, the AUC is 0.956 and the 50% inhibitory concentration (IC50) was more than 20 µM.

Take “CMK (acute myeloid leukaemia, suspension, top dose 20 µM)”: the AUC amounted to 0.786 and the IC50 was determined as 7.25 µM.

Take “COLO-205 (large intestine, suspension, top dose 20 µM)”: the AUC is 0.414 and the 50% inhibitory concentration (IC50) is 0.731 µM.

Take “COLO-320-HSR (large intestine, suspension, top dose 20 µM)”: the AUC is 0.901 and the half-maximal inhibitory concentration (IC50) was 19.9 µM.

Consider “COLO-668 (small cell lung carcinoma, adherent, top dose 20 µM)”, for which the AUC was determined as 0.68 and the half-inhibitory concentration (IC50) is 3.99 µM.

For the cell line “COLO-678 (large intestine, semi-adherent, top dose 20 µM)”, the AUC worked out at 0.985 and the IC50 was more than 20 µM.

Consider “COLO-679 (melanoma, adherent, top dose 20 µM)”, for which the AUC was found to be 0.973 and the IC50 is more than 20 µM.

In the case of “COLO-680N (oesophagus, adherent, top dose 20 µM)”, the AUC was found to be 0.888 and the IC50 is more than 20 µM.

Regarding “COLO-684 (endometrium, suspension, top dose 20 µM)”, the AUC is 0.852 and the IC50 is 18.6 µM.

Regarding “COLO-783 (melanoma, adherent, top dose 20 µM)”, the AUC was 0.965 and the IC50 is more than 20 µM.

Consider “COLO-792 (melanoma, adherent, top dose 20 µM)”, for which the AUC worked out at 0.676 and the IC50 is 3.84 µM.

For “COLO-800 (melanoma, adherent, top dose 20 µM)”, the AUC amounted to 0.96 and the IC50 is more than 20 µM.

Consider “COLO-824 (breast, adherent, top dose 20 µM)”, for which the AUC was 0.931 and the IC50 was more than 20 µM.

As for “COLO-829 (melanoma, adherent, top dose 20 µM)”, the AUC worked out at 0.826 and the IC50 is more than 20 µM.
